From PubChem BioAssay AID686978 (National Center for Advancing Translational Sciences (NCATS), 2013)
Several values for one entry are separate records, joined by “and”; a condition that tells them apart may be missing. Equal entries are not always repeated. The whole screen tested about 420,000 compounds, of which about 64,000 (15%) were called active. Inconclusive results, whose numbers are uncertain, are shown with a selection of clear calls. The call rests on the fitted dose curve; in most records, active means well fitted inhibition curve with a large enough effect; inconclusive means small, poorly fitted or top-dose-only effect; inactive means flat fitted curve, though single readings scatter. No potency is given beside an inconclusive call; the fits are too rough. More than one record can exist for a structure, and the calls need not agree.

assay: qHTS for Inhibitors of human tyrosyl-DNA phosphodiesterase 1 (TDP1): qHTS in cells in absence of CPT; details: DT40 Tdp1-/- hTDP1 cells, no CPT, ATP luminescence, 48 h; activity change, negative = growth inhibition: at 46.2 µM (top of the series) unless noted; further: nearly all actives have a fitted effect of over 55% in size
Summary of the method: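 Readout: luminescence from CellTiter-Glo after 30 min in the dark at RT. Cells: DT40 Tdp1-/- with stable hTDP1, 400/well. Exposure: compounds alone, ≥48 hr, 37 °C.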
On the % scale 0 is the no-effect control and ±100 the full control effect; potency means the concentration at half of the fitted maximal effect; tags describe the fitted curve by direction and shape.

SMILES | activity change, negative = growth inhibition | Potency
COc1ccc(CCNCc2ccncc2)cc1 | inactive: -1.94% | –
Cc1nc2ccccc2c(=O)n1-c1ccccc1[N+](=O)[O-] | inactive: -16.4% | –
COc1ccc(CNC(=O)/C=C\c2ccc3[nH]cc(CCN(C)C)c3c2)cc1 | – | inconclusive [inhibitor, single point]
COc1ccc(C(=O)C2CCCN(Cc3ccc(F)cc3F)C2)cc1F (stereo not drawn) | – | inconclusive [inhibitor, single point]
COc1ccccc1-n1c(O)c(/C=C2\C=Nc3ccccc32)c(=O)[nH]c1=O | – | inconclusive [inhibitor, single point]
NCC(CC(=O)O)C1CCCCC1 (stereo not drawn) | inactive: -5.06% | –
CCOP(=O)(c1ccccc1)c1nc(-c2ccc(F)cc2)oc1N1CCCCC1 (stereo not drawn) | – | active: 20.6 µM
CCCNS(=O)(=O)c1ccc(OCC(=O)N2CCN(Cc3ccccc3)CC2)cc1 | – | inconclusive [inhibitor, single point]
CC(C)Oc1cccc(NC(=O)c2ccccc2C(F)(F)F)c1 | – | inconclusive [inhibitor, single point]
CN1CC[C@@]23CCCC[C@@H]2[C@@H]1Cc1ccc(O)cc13 | – | inactive
CC(C)(C)c1nc(NCc2ccc3c(c2)OCO3)c2nnn(Cc3ccccc3Cl)c2n1 | – | inconclusive [inhibitor, partial curve]
N#CC1=C(N)Oc2c(c(=O)sc3ccccc23)C1c1ccncc1 (stereo not drawn) | – | inconclusive [inhibitor, single point]
COc1cc([C@@H]2c3cc4c(cc3[C@H](O)[C@H]3COC(=O)[C@H]23)OCO4)cc(OC)c1OC | – | active: 47.3 nM and active: 23.1 nM and active: 146 nM
Cc1ccc(-c2nc3ccccc3c(=O)n2-c2cccc(C)n2)cc1 | – | inconclusive [inhibitor, single point]
CC(C)c1cc2c(c(O)c1O)[C@]1(C(=O)O)CCCC(C)(C)C1CC2 (stereo partly drawn) | – | inconclusive [inhibitor, single point]
O=c1[nH]c(O)c(C=Nc2ccccc2Sc2ccccc2)c(=O)[nH]1 | inactive: -23.4% | –
COc1cccc(C(c2nnnn2Cc2ccccc2)N2CCC3(CC2)C(=O)NCN3c2ccccc2)c1OC (stereo not drawn) | – | inconclusive [inhibitor, single point]
Cc1ccc(NC(=O)c2cc(-c3ccccc3)n(CCCN3CCOCC3)c2C)cc1 | – | inconclusive [inhibitor, partial curve]
Cc1c(Cl)ccc2sc(N3CCN(C(=O)CCS(=O)(=O)c4ccc(F)cc4)CC3)nc12 | – | active: 0.461 µM
O=C(NC1CC1)c1cn(Cc2ccccc2)nc1-c1ccccc1 | inactive: -16.3% | –
Cn1c(NN=O)nc2ccccc21 | – | inconclusive [inhibitor, single point]
OC1CCC(Nc2ccn3nc(-c4cccc(OCc5ccccc5)c4)cc3n2)CC1 (stereo not drawn) | – | inconclusive [inhibitor, single point]
COC(=O)C1=COC(C)C2CN3CCC4(C(=O)Nc5ccccc54)C3CC12 (stereo not drawn) | inconclusive: -30.8% [inhibitor] | –
COc1ccc(-c2nc3ccccc3c(=O)n2-c2ccc(OC)cc2)cc1 | – | inconclusive [inhibitor, partial curve, poor fit]
COc1cccc(CNCCc2ccccc2)c1OC | inactive: -20.3% | –

SMILES | activity change, negative = growth inhibition | Potency
CSc1nc2ccc(C)cc2c(=O)n1-c1cccnc1 | inactive: -9.55% | –
N#Cc1c(/N=C/c2ccc(O)cc2O)sc2c1C1CCN2CC1 | inactive: -30.2% | –
CN1CCC(c2c[nH]c3ccccc23)C1 (stereo not drawn) | inconclusive: -32.9% [inhibitor] | –
Cc1cccc(C)c1NC1=NCCCS1 | – | inconclusive [inhibitor, single point]
CCCCCN(C)CCC(O)(P(=O)(O)O)P(=O)(O)O | inactive: -12.5% | –
COC1=CC(=O)[C@]2(C=C1OC)OC[C@@H]1Oc3c(ccc4c3C=CC(C)(C)O4)C(=O)[C@@H]12 | – | active: 0.206 µM
O=C(Nc1ccccc1)N(Cc1ccc2c(c1)OCO2)C1CCN(Cc2ccccc2)CC1 | – | active: 14.6 µM
COC(=O)Cn1cc(/C=C2\C(=O)NC(=O)N(c3ccccc3)C2=O)c2ccccc21 | – | inconclusive [inhibitor, partial curve]
CC(NCc1ccc(Cl)c(Cl)c1)C(O)c1ccccc1 (stereo not drawn) | – | inconclusive [inhibitor, partial curve]
COC(=O)c1c(N)[nH]c(C(=O)c2ccccc2)c1-c1ccc(Cl)cc1 | – | inconclusive [inhibitor, single point]
O=C(Nc1ccon1)c1cccn(Cc2cccc([N+](=O)[O-])c2)c1=O | – | inconclusive [inhibitor, single point]
CC1CCN(C(=O)c2ccc(N3CC4CC(C3)c3cccc(=O)n3C4)c([N+](=O)[O-])c2)CC1 (stereo not drawn) | inconclusive: -0.905% [inhibitor] | –
Cc1c(C(=O)Nc2ccccc2)c2cc(O)ccc2n1Cc1ccccc1 | – | inconclusive [inhibitor, single point]
C[C@]12CC[C@H](N)CC1=CCC1C2CC[C@@]2(C)C1CC[C@@H]2O (stereo partly drawn) | – | inconclusive [inhibitor, single point]
O=C1NC(=O)C(Sc2ccccc2[N+](=O)[O-])C(=O)N1 | – | inconclusive [inhibitor, single point]
O=c1[nH]c2ccccc2n1C1CCN(C(c2nnnn2-c2ccc3c(c2)OCCO3)C2CC2)CC1 (stereo not drawn) | – | active: 7.31 µM
CC(C)C[C@H]1C(=O)N2CCC[C@H]2[C@]2(O)O[C@](NC(=O)[C@@H]3C[C@@H]4c5cccc6[nH]cc(c56)C[C@H]4N(C)C3)(C(C)C)C(=O)N12 | – | inconclusive [inhibitor, partial curve]
CCCOC(=O)c1ccccc1C(=O)OCCC | inactive: 4.08% | –
CCOC(=O)[C@]12Cc3cc(C)ccc3[C@H]1N(CCC(=O)OC)C(=O)c1ccccc12 | – | active: 16.4 µM
O=c1c2ccccc2sn1-c1ccc(Cl)cc1 | – | active: 1.84 µM
O=[N+]([O-])c1ccc(C2[C@H]3C(c4ccccc4)=NC4(CCCCC4)N23)cc1 (stereo partly drawn) | inactive: -19.8% | –
N#Cc1cc(NC(=O)c2ccc(Cl)cc2)ccc1Sc1ccccc1 | – | active: 16.4 µM
O=P(Nc1ccccc1)(Oc1ccccc1)Oc1ccccc1 | – | inconclusive [inhibitor, partial curve, poor fit]
CCOC(=O)C(C#N)=C(c1ccccc1)c1ccccc1 | – | inconclusive [inhibitor, single point]
COc1ccc2c(c1O)-c1cc(O)cc3c1[C@@H](C2)N(C)CC3 | inactive: -11.2% | –

SMILES | activity change, negative = growth inhibition | Potency
COCCNC(=O)c1c(N)n(Cc2ccco2)c2nc3ccccc3nc12 | inconclusive: -30.1% [inhibitor] | –
COc1cc(/C=C2/C(=O)NC(=O)N(c3ccc(C)cc3)C2=O)cc(OC)c1OC | inactive: -0.0909% | –
O=S(=O)(Nc1ccc2[nH]ncc2c1)c1ccccc1Cl | – | inconclusive [inhibitor, partial curve, poor fit]
COc1ccccc1OCC#CCN1CCCC(C)C1 (stereo not drawn) | inactive: -29.2% | –
CC(N=Cc1c(O)[nH]c(=O)[nH]c1=O)c1ccccc1 (stereo not drawn) | – | inconclusive [inhibitor, partial curve]
Cc1ccc(C(=O)C2CN(C)CC2C(=O)c2ccc(C)cc2)cc1 (stereo not drawn) | – | inconclusive [inhibitor, partial curve]
c1ccc(CNc2c3c(nc4ccccc24)CCC3)cc1 | – | active: 14.6 µM
CN1C(=O)C(=Cc2ccccc2OCc2ccc(C(=O)O)cc2)C(=O)N(C)C1=O | inactive: 0.0385% | –
CS(=O)(=O)c1ccc([C@@H](O)[C@@H](CF)NC(=O)C(Cl)Cl)cc1 | – | active: 2.86 µM and active: 2.91 µM
CNCC(=O)c1ccccc1 | – | inconclusive [inhibitor, single point]
O=C(c1ccc(N2CC3CC(C2)c2cccc(=O)n2C3)c([N+](=O)[O-])c1)N1CCCCC1 (stereo not drawn) | inactive: -0.573% | –
O=C1NC(=S)N(c2ccccc2)C(=O)C1C(c1ccncc1)C1C(=O)NC(=S)N(c2ccccc2)C1=O (stereo not drawn) | inactive: -18.1% | –
CCn1ccnc1CN1CCCC(C(=O)c2cc(F)ccc2OC)C1 (stereo not drawn) | – | inconclusive [inhibitor, single point]
COC(=O)[C@@H]1N=C(c2ccc(OC)cc2)O[C@]12C(=O)N(Cc1ccc(OC)cc1)c1ccccc12 | – | inconclusive [inhibitor, partial curve, poor fit]
COC(=O)C1=C(N)Oc2c(c(=O)oc3ccccc23)C1c1cccnc1 (stereo not drawn) | inactive: -15.1% | –
NNC(=O)CP(=O)(c1ccccc1)c1ccccc1 | – | active: 11.9 µM
Cc1ccc(CNC(=O)c2ccc(Nc3nc4ccccc4n4nnnc34)cc2)cc1 | – | active: 14.6 µM
COc1ccc(C2=NCC(=S)Nc3ccc(Cl)cc32)cc1OC | – | inconclusive [inhibitor, single point]
O=C(Nc1cccc(Cl)c1)c1c(O)c2c(n(Cc3ccco3)c1=O)CCCC2 | – | inconclusive [inhibitor, single point]
CN(C(=O)c1ccc(Cl)nc1)C1(c2ccccc2Cl)CCCCC1=O (stereo not drawn) | inactive: -21.8% | –
CC(C)CCn1c(=O)c(C(=O)NCc2ccco2)c(O)c2ccccc21 | – | active: 9.2 µM
Cn1c(C(=O)N2CCN(c3nc4ccccc4s3)CC2)cc2sccc21 | – | inconclusive [inhibitor, single point]
CCCCC/C=C\C/C=C\C/C=C\C/C=C\CCCC(=O)Nc1ccc(O)cc1 | – | active: 21.1 µM
